Out of some 52,000 compounds screened, about 1,700 (3.3%) were called active. Rule as the data show it: active = survival mostly below about 52% (no sharp cut-off); inactive = mostly above about 56%. The list shows a part of the results.
system: Wild type; experiment: growth inhibition of S. aureus wild type versus tarO mutant, primary screen, teichoic acid synthesis inhibitors, RN4220, OD600 (AID 463173); conditions: S. aureus RN4220 wild type/DeltatarO growth, OD600, 18 h, stronger effect = lower value, screened at 18.75 µg/mL (by protocol)

| Structure (SMILES) | survival |
| --- | --- |
| Cc1ccc(-c2noc(-c3ccc(N4CCCC4)c([N+](=O)[O-])c3)n2)cc1 | inactive: 113% |
| Cc1ccc(C(=O)Nc2c(C(=O)Nc3ccc(C)c(C)c3)sc3nc(C)cc(C)c23)cc1 | inactive: 76% |
| CCCc1cc(=O)[nH]c(SCc2nc(-c3ccc(OCC)cc3)no2)n1 | inactive: 65% |
| CCc1cccc(C)c1NC(=O)CSc1nc2ccncc2[nH]1 | inactive: 152% |
| COc1ccc(NC(=O)C2CCN(c3cc(C)nc4c(-c5ccc(Cl)cc5)c(C)nn34)CC2)cc1 | inactive: 90% |
| Cc1c(-c2ccccc2)c(=O)oc2c(CN3CCOCC3)c(O)ccc12 | inactive: 66% |
| CC1(C)CC(NS(=O)(=O)c2ccccc2)CC(C)(C)N1 | inactive: 97% |
| Cc1ccc(C2C=C(c3ccccc3)Nc3nc(NS(C)(=O)=O)nn32)cc1 (configuration not stated) | inactive: 68% |
| Cc1cccc(NC(=O)c2cn(-c3ccccc3)nc2-c2ccccc2)c1C | inactive: 102% |
| Cc1ccccc1CN1CCCN(CC(=O)Nc2ccc(F)cc2)S1(=O)=O | inactive: 92% |
| CCOC(=O)C1CCN(Cc2cn3c(-c4ccc(OC)cc4)nnc3s2)CC1 | inactive: 65% |
| COc1cccc(NS(=O)(=O)c2ccc3[nH]cc(C(=O)NC(C)c4ccccc4)c(=O)c3c2)c1 (configuration not stated) | inactive: 61% |
| Cc1ccc(OCCCCn2c(-c3ccc(Cl)cc3)nc3ccccc3c2=O)cc1 | inactive: 67% |
| CC(C)c1ccc(NC(=O)Cn2nnc(C(=O)NCc3ccc4c(c3)OCO4)c2N)cc1 | inactive: 78% |
| CCOC(=O)c1c(C)oc2nc(C)nc(NCCc3ccc(Cl)cc3)c12 | inactive: 78% |
| Cc1ccc(NC(=O)Cn2c(=O)n(Cc3ccc4c(c3)OCO4)c(=O)c3oc4ccccc4c32)cc1C | inactive: 87% |
| Cn1c(=O)oc2cc(S(=O)(=O)NC(Cc3ccccc3)C(=O)Nc3ccc(F)c(Cl)c3)ccc21 (configuration not stated) | inactive: 93% |
| Cc1ccc(/C=C/C(=O)Nc2ccc3nc(N4CCC(C)CC4)cc(C)c3c2)cc1 | inactive: 139% |
| CCOc1ccc(C(=O)Nc2ccc3nc(N(CC)CC)cc(C)c3c2)cc1 | inactive: 62% |
| Cc1cc(N2CCC(C(=O)Nc3ccc(F)cc3F)CC2)n2nc(C)c(-c3ccc(Cl)cc3)c2n1 | inactive: 87% |
| CCOc1cccc2sc(NC(=O)c3ccc(S(=O)(=O)N4CCCCC4C)cc3)nc12 (configuration not stated) | active: 10% |
| CCN(c1cccc(C)c1)S(=O)(=O)c1cc2c(cc1C)n(C)c(=O)c(=O)n2C | inactive: 77% |

| Structure (SMILES) | survival |
| --- | --- |
| COc1ccc(OCCSc2nc(C)cc(=O)[nH]2)cc1 | inactive: 107% |
| Clc1ccccc1Cn1c(-c2cccs2)nc2ccccc21 | active: -3% |
| CCOc1ccc(NC(=O)c2sc(-n3nc(C)c(Cc4ccc(Cl)cc4)c3C)nc2C)cc1 | inactive: 86% |
| Cc1nnc(NC(=O)c2nc(SC(C)C)ncc2Cl)s1 | inactive: 82% |
| O=C(c1cc(-c2ccc(Cl)cc2)n[nH]1)N1CCN(S(=O)(=O)c2ccc(Br)s2)CC1 | inactive: 75% |
| CCOC(=O)c1c(C)[nH]c(C)c1S(=O)(=O)N1CCN(c2cc(Cl)ccc2C)CC1 | inactive: 120% |
| COc1ccc(-c2cc(C(F)(F)F)nc(SCCC(=O)N3CCN(C)CC3)n2)cc1 | inactive: 108% |
| CCOC(=O)c1c(-c2ccc(C)cc2)csc1NC(=O)c1cc(-c2ccc(OC)cc2)on1 | inactive: 80% |
| CCc1cccc(NC(=O)c2ccc3c(c2)N(Cc2cccc(Cl)c2)C(=O)c2ccccc2S3=O)c1 (configuration not stated) | inactive: 70% |
| Cc1cccc(N(C)C(=O)CCS(=O)(=O)c2ccc3c(c2)n(C)c(=O)c(=O)n3C)c1 | inactive: 87% |
| Cc1cc(Nc2cccc(C(=O)O)c2)n2nc(C)nc2n1 | inactive: 125% |
| COc1ccc(CCNS(=O)(=O)c2c(C)nc3sc(C)cn3c2=O)cc1OC | inactive: 86% |
| CCCCOc1ccc(NC(=O)CS(=O)CC(=O)Nc2ccc(OC)cc2)cc1 (configuration not stated) | inactive: 105% |
| CCCn1c2ccccc2c2cnn(CC(=O)NCCN(CC)CC)c(=O)c21 | inactive: 53% |
| COc1ccc(-c2nc3ccccc3o2)cc1NC(=O)c1cccnc1 | inactive: 57% |
| COc1ccc(CCNC(=O)c2ccc3c(c2)N=C(C)c2ccccc2S3)cc1OC | inactive: 74% |
| Cc1cccc(NC(=O)CN(C)S(=O)(=O)c2ccc3c(c2)c(=O)n(C)c(=O)n3C)c1C | inactive: 123% |
| C=Cn1cccc1C(=O)O | inactive: 102% |
| CCOc1c(Cl)cc(CNc2ccc3[nH]c(=O)[nH]c3c2)cc1OC | inactive: 88% |
| CCOC(=O)C1Cc2c([nH]c3ccccc23)CN1 (configuration not stated) | inactive: 113% |
| CCN(CC)CCCNC(=O)c1ccc2c(c1)sc1nc(-c3ccc(C)cc3)cn12 | active: 8% |
| COc1ccc(NC(=O)NC(C)c2c(-n3cccc3)sc(C)c2C)cc1OC (configuration not stated) | inactive: 76% |

| Structure (SMILES) | survival |
| --- | --- |
| CCCCOc1ccc(C(=O)Nc2cc(-c3cn4cccnc4n3)ccc2OC)cc1 | inactive: 66% |
| COc1ccc(Cl)cc1C(=O)CSc1nnnn1C1CCCCC1 | inactive: 109% |
| CCOC(=O)C1CCN(C(=O)c2cnn(-c3ccc(F)cc3)c2-n2cccc2)CC1 | inactive: 89% |
| CCOC(=O)c1[nH]c2c(c1Cc1ccccc1)C(=O)CC(c1ccc(C(C)(C)C)cc1)C2 (configuration not stated) | inactive: 83% |
| CCCCN1C2CCCC1CC(NC(=O)C1CCCCC1)C2 (configuration not stated) | inactive: 94% |
| CCN(CC)CCCNC(=O)c1sc2nc3n(c(=O)c2c1C)CCCCC3 | inactive: 110% |
| CCc1[nH]nc2c1C1(C(=O)Nc3ccc(Cl)cc31)C(C#N)=C(N)O2 (configuration not stated) | inactive: 110% |
| COc1ccc(-c2noc(CSc3nnc(Cc4ccccc4)n3-c3ccc(F)cc3)n2)cc1 | inactive: 70% |
| CN(CC(=O)Nc1ccc(F)cc1F)S(=O)(=O)c1cccc2nsnc12 | inactive: 78% |
| CCN(CC)S(=O)(=O)c1cc(-c2ccc(=O)n(C(C)C(=O)Nc3cccc(C#N)c3)n2)ccc1C (configuration not stated) | inactive: 62% |
| CCc1ccc(NC(=O)CSc2nnc(CC)c(CC)n2)cc1 | inactive: 71% |
| Cc1ccc(Cn2c(CN3CCC(C(=O)O)CC3)cc3ccccc32)cc1 | inactive: 82% |
| COc1ccc(C(=O)Nc2nc3c(s2)Cc2c(Br)ccc(OC)c2-3)cc1OC | inactive: 86% |
| Cc1cc(C)cc(N(CC(=O)Nc2c(C)cc(C)cc2C)S(=O)(=O)c2c(C)nn(C)c2C)c1 | active: -6% |
| Cc1ccc(Nc2nc(Cl)nc(N(C)C#N)n2)cc1 | inactive: 112% |
| CCOc1cc(-c2nnc(SCC(=O)NC3CCCCC3)nc2-c2ccc(OC)c(OCC)c2)ccc1OC | inactive: 72% |
| COc1ccc(CNC(=O)CCCn2ccc3cc(S(=O)(=O)N4CCCC4)ccc32)cc1 | inactive: 75% |
| CC1(C)Cc2ccccc2C2=NNC(=O)C2=N1 | inactive: 114% |
| CC(C)NC(=O)C1CCCN(c2ncnc3onc(-c4ccc(F)cc4)c23)C1 (configuration not stated) | inactive: 94% |
| CCOc1ccccc1NC(=O)CCS(=O)(=O)c1ccc2c(c1)oc(=O)n2C | inactive: 73% |
| COc1ccc2oc(-c3cccc(NC(=O)c4cc([N+](=O)[O-])ccc4N4CCOCC4)c3)nc2c1 | inactive: 66% |
| CCOC(=O)C(C)Sc1nnc2cc(C)c3ccccc3n12 (configuration not stated) | inactive: 78% |

| Structure (SMILES) | survival |
| --- | --- |
| COc1cc(C2c3c(-c4c(C)cc(C)cc4O)n[nH]c3C(=O)N2Cc2ccco2)cc(OC)c1OC (configuration not stated) | inactive: 98% |
| COc1ccc(OC)c(-c2cc(C(=O)Nc3c(C)nn(Cc4ccc(C)cc4)c3C)no2)c1 | inactive: 71% |
| Cc1ccccc1CNC(=O)C1CCCCN1S(=O)(=O)c1ccc(F)cc1 (configuration not stated) | inactive: 74% |
| COc1ccc(C(CNC(=O)c2oc3cc(Br)ccc3c2C)N2CCCCC2)cc1 (configuration not stated) | inactive: 84% |
| O=[N+]([O-])c1ccc(S(=O)(=O)N2CCn3cccc3C2c2ccc(Br)cc2)cc1 (configuration not stated) | inactive: 71% |
| O=C(Cn1ncc2c3ccccc3n(Cc3ccccc3)c2c1=O)NCc1ccccn1 | inactive: 86% |
| Cc1ccc(-n2ncc3c(NCCCN(C)C)ncnc32)cc1Cl | inactive: 78% |
| COc1ccc(Nc2ncc3c(n2)CCN(Cc2sccc2C)C3)c(OC)c1 | inactive: 73% |
| COc1ccc2c(CNCCc3ccco3)c(C(=O)O)n(Cc3ccc(C)cc3)c2c1 | inactive: 86% |
| Cc1ccc(-n2nc(C(=O)N(C)c3ccc(C)c(C)c3)c3c4ccccc4n(C)c3c2=O)cc1 | inactive: 101% |
| Cc1ccc(NC(=O)c2c(C)oc3ccc(O)c(CN4CCN(Cc5ccccc5)CC4)c23)cc1 | inactive: 68% |
| O=C(CSc1ccccc1)NN1C(=O)c2ccccc2C1=O | inactive: 112% |
| CCOC(=O)CN1C(=O)N(c2ccc(C)c(C)c2)S(=O)(=O)c2ccccc21 | inactive: 87% |
| Cc1ccc(CN2CCC(CNC(=O)c3cnn(-c4ccc(C)cc4)c3C3CCN(C(=O)OC(C)(C)C)CC3)CC2)cc1 | inactive: 113% |
| Cc1ccc(S(=O)(=O)N(CC(=O)Nc2cccnc2)c2cc(Cl)ccc2C)cc1 | inactive: 72% |
| COc1ccc(NC(=O)CC2C(=O)N(c3ccccc3)C(=O)N2CCc2sccc2C)cc1 (configuration not stated) | inactive: 78% |
| Cc1cccc(NC(=O)CCCn2nc(C)c3c(C)n(-c4ccccc4)nc3c2=O)c1C | inactive: 82% |
| CCOc1ccc(CNC(=O)C2CCCN(c3nn4cc(-c5ccc(OC)cc5)nc4s3)C2)cc1 (configuration not stated) | inactive: 95% |
| Cc1cc(=O)n(CC(=O)Nc2ccc(Cl)c(Cl)c2)c(-n2nc(C)cc2C)n1 | inactive: 128% |
| CC(C)CCNc1nc2c(-c3ccccc3)nnn2c2ccccc12 | inactive: 88% |
| Cc1ccc(C(=O)CSc2nc3cc(C(=O)NC4CCCC4)ccc3c(=O)n2CC2CCCO2)c(C)c1 (configuration not stated) | inactive: 63% |
